Data published in PubChem BioAssay (NCI).
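All cell lines were grown in 96-well plates and treated with compound for 48 hours. GI50 marks 50% less growth. TGI: total growth inhibition.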

Test system: NCI-H322M lung
Assay: inhibition of tumour cell growth, NCI panel, 48 h

SMILES	TGI	GI50
Cc1ccc(C)c(COCCOCn2cc(Br)c(N)nc2=O)c1	> 100 µM	–
O=S1(=O)N(Cc2ccccc2)[C@@H](Cc2ccccc2)C2O[C@H]2[C@H](Cc2ccccc2)N1Cc1ccccc1 (stereo not given in full)	> 7.5 µM	> 7.5 µM
CN(C)C(=S)NN=C(c1ccccn1)c1ccccn1	22 µM	< 0.0123 µM
NS(=O)(=O)c1ccc(Nc2c3ccccc3nc3c(C(=O)NCCCN(CCO)CCO)cccc23)cc1	> 100 µM	–
c1cc(C2CCCCC2)ccc1OCCCCCCN1CCNCC1	3.46 µM	1.83 µM
CN(C)c1ccc(C(=O)c2ccc(N(C)C)c(N)c2)cc1N	> 95.2 µM	7.34 µM
C=C1C(=O)O[C@H]2[C@H]1CC/C(CNC(=O)/C=C/c1cccc(OC)c1)=C\CC[C@@]1(C)O[C@@H]21	22.1 µM	10.3 µM
C=C1C(=O)O[C@H]2[C@H]1CC/C(CNS(=O)(=O)c1ccc3ccccc3c1)=C\CC[C@@]1(C)O[C@@H]21	27.6 µM	13.9 µM
COc1cc2c(c(OC)c1OC)-c1ccc(NNC(=S)N(Cc3cccc(C[N+](Cc4cccc(CNC56CC7CC(CC(C7)C5)C6)c4)(Cc4cccc(CNC56CC7CC(CC(C7)C5)C6)c4)Cc4cccc(CN(C(=S)NNc5ccc6c(cc5=O)[C@@H](NC(C)=O)CCc5cc(OC)c(OC)c(OC)c5-6)C56CC7CC(CC(C7)C5)C6)c4)c3)C34CC5CC(CC(C5)C3)C4)c(=O)cc1[C@@H](NC(C)=O)CC2 (stereo not given in full)	7.02 µM	2.57 µM
Cn1cc(NC(=O)c2cc(NC(=O)Nc3cc(C(=O)Nc4cc(C(=O)NCCC(=N)N)n(C)c4)n(C)c3)cn2C)cc1C(=O)NCCC(=N)N	> 100 µM	–
C[C@]12CC/C(=N\N)C[C@@H]1CC[C@@H]1[C@@H]2CC[C@]2(C)/C(=N/N)CC[C@@H]12	> 100 µM	> 100 µM
C=C(C)C(=O)OC1CC2(C)OC2CC(OC(C)=O)/C(C)=C/C2OC(=O)C(=C)C21 (stereo not given)	32.5 µM	–
CC1CCC2(NC1)OC1CC3[C@@H]4CC=C5C=CCC[C@]5(C)C4CC[C@]3(C)C1C2C (stereo not given in full)	52.2 µM	–
CC(C)COC(=O)N1N=NC2C3OC(CC3=O)C21 (stereo not given)	> 100 µM	–
O=C(Nc1nnc(-c2ccccc2)o1)C(SC(=S)N1CCOCC1)c1ccccc1 (stereo not given)	62.9 µM	–
CNc1nc(C)c(-c2nc(Nc3cccc(S(N)(=O)=O)c3)ncc2F)s1	13.9 µM	0.0262 µM
COc1cc(N=Nc2ccccc2)cc(/C=N\[N-]C(N)=S)c1[O-].COc1cc(N=Nc2ccccc2)cc(/C=N\[N-]C(N)=S)c1[O-].[Fe+4]	> 100 µM	51.8 µM
CCCCCCCCCCCCCC[P+](CCCCCC)(CCCCCC)CCCCCC	–	0.288 µM
COC(=O)/C=C\C(C#N)(C#N)N=Cc1ccc(C)s1	29.4 µM	–
CCOC(=O)/C(C#N)=C/c1ccc(CO)o1	> 100 µM	–
O=C1c2ccccc2-c2nccc3cc(Cl)nc1c23	> 100 µM	> 33.9 µM
S=C1C(=Nc2ccccc2)N(c2ccccc2)/C(=N\c2ccccn2)N1c1ccccc1	30.5 µM	–

SMILES	TGI	GI50
CCN(CC)CCOc1ccc(Nc2ncc3cc(-c4c(Cl)cccc4Cl)c(=O)n(CCOC)c3n2)cc1	6.41 µM	0.126 µM
CN(C)/C=C/c1nnnn1-c1ccc(Cl)cc1	76.9 µM	28.2 µM
CCN(CC)c1ccc(N=C2C=CC(=O)c3ncccc32)c(C)c1	30.4 µM	–
COc1cc(/C=C2\N=C(c3ccccc3)N(/N=C3\C(=O)Nc4ccccc43)C2=O)cc(OC)c1OC	> 100 µM	–
CCOC(=O)C(=O)C1C(=O)Nc2ccccc21 (stereo not given)	> 100 µM	–
Oc1ccc2occ3c2c1CCC3	> 100 µM	–
OCCCCC#Cc1ccccc1C#Cc1ccccc1F	49.2 µM	21.4 µM
C=C1C(=O)O[C@H]2C/C(C)=C/CC/C(C)=C/CC[C@@](C)(O)[C@@H](I)C[C@@H]12	26.8 µM	–
Cc1cc(N=Cc2c(CO)cnc(C)c2O)c(N=Cc2c(CO)cnc(C)c2O)cc1C.[Zn]	> 100 µM	–
COc1ccc(C[C@H](N)C(=O)N2C[C@H](CO)C[C@H](n3ccc(=O)[nH]c3=O)C2)cc1	> 100 µM	–
Cc1ccc(C(=O)O/N=C2/CCCCC2CN(C)C)cc1 (stereo not given)	> 100 µM	–
O=C(NC1(C(=O)NNc2nnc(-c3ccccc3)c(-c3ccccc3)n2)C(c2ccccc2)C(c2ccccc2)=NN1c1ccccc1)c1ccccc1 (stereo not given)	> 100 µM	–
COc1ccc(/C=C2\CC3C4CC=C5C[C@@H](O)CC[C@]5(C)C4CC[C@]3(C)\C2=N\O)cc1OC (stereo not given in full)	> 100 µM	–
C[N+](C)([O-])CCCNc1c2ccccc2nc2cccc([N+](=O)[O-])c12	2.79 µM	–
Cc1cc(=O)n2nc(CSc3nnc(N)s3)sc2n1	> 100 µM	–
Cc1cc(Nc2ccc(N=Nc3ccc(O)c4ncccc34)cc2)nc(C)n1	67.6 µM	–
Cc1ccc(-n2c(O)c3c(N)n[nH]c3c(C#N)c2=O)cc1	> 100 µM	–
Cc1nccn1S(=O)(=O)c1ccc(Br)cc1Br	> 100 µM	–
NS(=O)(=O)c1ccc(C2C3=C(CCCC3=O)OC3=C2C(=O)c2ccccc2C3=O)cc1 (stereo not given)	3.5 µM	1.64 µM
N#Cc1cccc(C(=O)c2cnn(-c3ccc(F)cc3)c2N)c1	> 25 µM	> 25 µM
Cn1c(=O)c(Oc2cccc(F)c2)cc2cnc(NC3CCOCC3)nc21	> 25 µM	> 25 µM
